# Structures can show the parent of a compound that is named as a salt. ± gives the standard deviation of the averaged measurements. In all, about 1,300 compounds were measured (“normalised cell viability”: median about 1, lowest 2% from about 0.14 on). The list shows a part of the results.
# System: V-C8 (BRCA2-deficient hamster cells)
# Assay: normalised cell viability (fraction of plate median); higher = more viable cells (less toxic)
# Conditions: 5 µM
# Procedure, shortened: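 Library drugs, held as 10 mM stocks in DMSO, were diluted to 5 μM in 100 μl medium and added to 96-well plates of V-C8 hamster cells, either lacking BRCA2 or with BRCA2 restored, 24 h after seeding. Plates ran for 3 days (screen 1) or 6 days (screen 2), alongside solvent-only wells. Viability came from a resazurin readout, median-plate normalised, as the mean of triplicate wells.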
SMILES,normalised cell viability (treatment time: 3 days),normalised cell viability (treatment time: 6 days)
CC(Cc1cccc(C(F)(F)F)c1)NCCOC(=O)c1ccccc1 (stereo unspecified) [Benfluorex hydrochloride],1.14 ± 0.015,1.202 ± 0.006
CC(=O)S[C@@H]1CC2=CC(=O)CC[C@]2(C)[C@H]2CC[C@@]3(C)[C@@H](CC[C@@]34CCC(=O)O4)[C@H]12 [Spironolactone],1.06 ± 0.083,1.04 ± 0.039
CCCc1cc(C(N)=S)ccn1 [Prothionamide],0.967 ± 0.035,1.04 ± 0.061
NNCCc1ccccc1 [Phenelzine sulfate],1.05 ± 0.057,1.05 ± 0.076
C[C@H]1O[C@H](O[C@H]2[C@H](O)[C@@H](O)[C@@H](O[C@H]3[C@H](O)[C@@H](O)C(O)O[C@@H]3CO)O[C@@H]2CO)[C@H](O)[C@@H](O)[C@@H]1N[C@H]1C=C(CO)[C@@H](O)[C@H](O)[C@H]1O (stereo partly specified) [Acarbose],0.911 ± 0.036,1.11 ± 0.066
CC(C)(C)NC[C@@H](O)COc1cccc2c1CCCC2=O [(+) -Levobunolol hydrochloride],0.9988 ± 0.0084,0.922 ± 0.077
CO[C@H]1/C=C/O[C@@]2(C)Oc3c(C)c(O)c4c(O)c(c(/C=N/N5CCN(C6CCCC6)CC5)c(O)c4c3C2=O)NC(=O)/C(C)=C\C=C\[C@H](C)[C@H](O)[C@@H](C)[C@@H](O)[C@@H](C)[C@H](OC(C)=O)[C@@H]1C [Rifapentine],0.949 ± 0.11,1.03 ± 0.025
N=C(N)NC(=N)NCCc1ccccc1 [Phenformin hydrochloride],0.955 ± 0.035,0.96 ± 0.052
CN1CCC(=C2c3ccccc3C=Cc3ccccc32)CC1 [Cyproheptadine hydrochloride],0.868 ± 0.057,0.817 ± 0.02
CC[N+](C)(C)c1cccc(O)c1 [Edrophonium chloride],0.951 ± 0.062,1.02 ± 0.028
NCCc1c[nH]cn1 [Histamine dihydrochloride],1.06 ± 0.084,1.08 ± 0.14
OC(Cn1cncn1)(Cn1cncn1)c1ccc(F)cc1F [Fluconazole],1.09 ± 0.061,1.03 ± 0.054
CCCOc1cc(N)ccc1C(=O)OCCN(CC)CC [Propoxycaine hydrochloride],1.1 ± 0.017,1.04 ± 0.015
Cc1cn[nH]c1 [Fomepizole],1.15 ± 0.042,1.02 ± 0.036
CC(=O)OCC(=O)[C@@]1(O)CC[C@H]2[C@@H]3CCC4=CC(=O)CC[C@]4(C)[C@@]3(F)[C@@H](O)C[C@@]21C [Fludrocortisone acetate],0.957 ± 0.08,1.11 ± 0.041
CCCCN(CCCC)CCCOC(=O)c1ccc(N)cc1 [Butacaine],1.01 ± 0.041,1.03 ± 0.039
Cc1ccc(C(=O)c2ccc(CC(=O)O)n2C)cc1 [Tolmetin sodium salt dihydrate],1.02 ± 0.035,0.978 ± 0.025

SMILES,normalised cell viability (treatment time: 3 days),normalised cell viability (treatment time: 6 days)
COC(=O)Nc1nc2cc(C(=O)c3cccs3)ccc2[nH]1 [Nocodazole],0.147 ± 0.0062,0.128 ± 0.004
CC[N+](C)(CC)CCOC(=O)C1c2ccccc2Oc2ccccc21 [Methantheline bromide],0.957 ± 0.12,0.897 ± 0.059
CC(=O)OCC(=O)[C@@]1(O)CC[C@H]2[C@@H]3CCC4=CC(=O)CC[C@]4(C)[C@H]3[C@@H](O)C[C@@]21C [Cortisol acetate],1.06 ± 0.14,1.16 ± 0.045
Cc1ncc(C[n+]2csc(CCO)c2C)c(N)n1 [Thiamine hydrochloride],1.05 ± 0.029,1.05 ± 0.016
CC(C)c1c(C(=O)Nc2ccccc2)c(-c2ccccc2)c(-c2ccc(F)cc2)n1CC[C@@H](O)C[C@@H](O)CC(=O)O [Atorvastatin],0.633 ± 0.051,0.734 ± 0.032
CCN[C@H]1CN(CCCOC)S(=O)(=O)c2sc(S(N)(=O)=O)cc21 [Brinzolamide],1.14 ± 0.04,1.11 ± 0.032
NS(=O)(=O)c1cc(C2(O)NC(=O)c3ccccc32)ccc1Cl (stereo unspecified) [Chlorthalidone],1.05 ± 0.036,1.01 ± 0.085
C=CC(N)CCC(=O)O (stereo unspecified) [Vigabatrin],1.04 ± 0.061,1.03 ± 0.042
CCN(CC)CCOC(=O)C1(C2CCCCC2)CCCCC1 [Dicyclomine hydrochloride],0.977 ± 0.096,0.998 ± 0.04
CC(N/C(=N\C#N)Nc1ccncc1)C(C)(C)C (stereo unspecified) [Pinacidil],0.916 ± 0.02,0.953 ± 0.043
CCCCC(O)c1ccccc1 (stereo unspecified) [Fenipentol],1.12 ± 0.097,1.03 ± 0.016
CC(=O)Oc1ccccc1C(=O)Nc1ncc([N+](=O)[O-])s1 [Nitazoxanide],0.889 ± 0.033,0.95 ± 0.07
COc1cc(C(=O)OCCCN2CCCN(CCCOC(=O)c3cc(OC)c(OC)c(OC)c3)CC2)cc(OC)c1OC [Dilazep dihydrochloride],0.887 ± 0.081,0.903 ± 0.072
O=C1c2c(O)cccc2Cc2cccc(O)c21 [Anthralin],1.03 ± 0.019,1.003 ± 0.0083
O=C(O)c1cn(-c2ccc(F)cc2)c2cc(N3CCNCC3)c(F)cc2c1=O [Sarafloxacin],1.01 ± 0.047,1.1 ± 0.32
C[C@@H]1C[C@H]2[C@@H]3C[C@H](F)C4=CC(=O)C=C[C@]4(C)[C@@]3(F)[C@@H](O)C[C@]2(C)[C@@]1(O)C(=O)CO [Flumethasone],1.06 ± 0.084,1.1 ± 0.038
